In PubChem BioAssay AID1347044 (National Center for Advancing Translational Sciences (NCATS), 2019):
The other results are listed elsewhere or left out. Shown are side measurements of this screen, not its main read-out; they come without a call. Most of these compounds were active or inconclusive in the main read-out, so they are no random draw. The note in brackets gives the kind of curve behind each potency; many fits are weak.

Experiment: Natriuretic polypeptide receptor (hNpr1) antagonism - Confirmation; note: nearly all actives have a fitted effect of over 70% in size
Details: HEK293 hNpr1 cGMP GloSensor luminescence, ANP-stimulated; measured here: HEK-hNpr1 cytotoxicity, CellTiter-Glo
Outline: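 HEK293 cells expressing hNpr1 and the pGS-40F GloSensor cGMP sensor, loaded with 2% GloSensor reagent for 2 h, then treated 30 min with compound at room temperature. Luciferase luminescence read before and 20 min after 0.1 nM hNppA stimulation.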
Tags give direction and shape of the fitted curve.

Compound | CC50
COc1ccc(CC(=O)NC2CCN(c3cc(-c4ccc(Cl)cc4)[nH]n3)C2)cc1OC (stereo unspecified) | 19.3 µM [falling, partial curve]
COc1cccc(-c2noc(CC3CCN(C(=O)c4ccc(OC)cc4C)CC3)n2)c1 | 9.68 µM [falling, partial curve]
Clc1cccc(-c2cnc([C@@H]3COCCN3Cc3cnc4ccccc4c3)[nH]2)c1 | 39.6 µM [falling, partial curve]
CC(C)c1ccc(CC(=O)N2CCCc3ncc(C(=O)N(C)c4ccccc4)cc32)cc1 | 35.3 µM [falling, partial curve, poor fit]
Cc1ccc2nc(C3CCN(Cc4ccc(C#N)cc4)CC3)[nH]c(=O)c2c1 | 12.2 µM [falling, partial curve]
CNc1nccc(N2CCC(CC(=O)N3CCN(c4ccccc4C)CC3)CC2)n1 | 27.3 µM [falling, single point]
COc1ccc(S(=O)(=O)N2CCc3c(C(=O)NCc4cccc(F)c4)cccc32)cc1 | 21.7 µM [falling, partial curve]
CC1=NS(=O)(=O)N(C)C=C1C(=O)OCc1nc(-c2cccs2)no1 | 38.5 µM [falling, single point]
CN(Cc1ccnc2ccccc12)C(=O)c1cn(Cc2ccc(Cl)cc2)nn1 | 17.2 µM [falling, partial curve]
CC(C)NC(=O)N1CCNc2cnc(Nc3cccc(C(F)(F)F)c3)nc2C1 | 25 µM [falling, partial curve]
Cc1ccccc1-c1cnc2[nH]cc(CC(=O)N3CCCC3)c2c1 | 19.8 µM [falling, partial curve]
COc1ccc(CN2CC3(CCN(C(=O)c4cn[nH]c4-c4ccc(F)cc4)CC3)C2=O)cc1 | 21.7 µM [falling, partial curve]
O=C(c1ccc(F)cc1)N1CCC(Cc2nc(-c3ccccc3)no2)CC1 | 6.11 µM [falling, full curve]
COc1ccc(OCC2(C)COc3ccc(C(=O)Nc4ccccc4)cc3N2)cc1 (stereo unspecified) | 62.7 µM [falling, single point]
O=C1CCC2(CCN(c3nc4ccccc4s3)CC2)CN1Cc1cccnc1 | 19.3 µM [falling, partial curve]
CC1(CCCCc2ccccc2)COc2ccc(C(=O)N3CC(O)C3)cc2N1 (stereo unspecified) | 31.4 µM [falling, partial curve]
Cc1ccc(S(=O)(=O)N2CCc3c(C(=O)NCc4ccccn4)cccc32)cc1 | 24.3 µM [falling, partial curve]
CCn1nccc1C(=O)N1CCC(CCOc2ccc(F)cc2)C1 (stereo unspecified) | 21.7 µM [falling, partial curve]
O=C1c2c(nc(CNCc3cccc(Cl)c3)n2Cc2ccccc2)NCCN1CCOc1ccccc1 | 43.2 µM [falling, single point]
Cc1ccc(CN2CC(Oc3ccc(-c4noc(-c5cccnc5)n4)cc3)C2)o1 | 21.7 µM [falling, partial curve]
COc1ccc(OC)c(CNC(=O)c2ccc(-c3ccc(N4CCSCC4)nc3)cc2)c1 | 6.85 µM [falling, full curve]

Compound | CC50
Cc1noc(C)c1-c1cc2c(c(-c3ccc(F)c(Cl)c3)c1)C(=O)N(C)C2 | 17.7 µM [falling, partial curve]
Cc1oc(-c2ccccc2)nc1CN1CCCC(C(=O)NCCc2noc(-c3ccccc3)n2)C1 (stereo unspecified) | 21.7 µM [falling, partial curve]
COc1ccc(CN2C[C@H]3CN(Cc4ccc([N+](=O)[O-])cc4)CCN3C2=O)cc1 | 19.8 µM [falling, partial curve]
CC(C)c1cc(C(=O)NC2CCN(c3ncccc3C#N)CC2)n(C)n1 | 7.69 µM [falling, partial curve]
COCc1nc(-c2ccc(OC3CN(C(=O)NCc4ccc(OC)cc4)C3)cc2)no1 | 19.3 µM [falling, partial curve]
COC(=O)N1CCCCC(NC(=O)CCCc2nc(-c3ccccc3C)no2)C1 (stereo unspecified) | 21.7 µM [falling, partial curve]
Cc1ccc(C(=O)N2CCC(n3cc(-c4nc(C5CC5)no4)nn3)C2)s1 (stereo unspecified) | 21.7 µM [falling, partial curve]
COc1ccc(C2(C(=O)N3CCC(Cc4nc(-c5ccccc5)no4)CC3)CC2)cc1 | 12.2 µM [falling, partial curve]
COc1ccc(CNC(=O)c2ccc3c(c2)N(C(=O)c2ccc(F)cc2)CC3)cc1OC | 6.11 µM [falling, partial curve]
COC(=O)c1cccc(NC(=S)N[C@H]2CO[C@H]3[C@@H]2OC[C@H]3OC(=O)Nc2cccc(C(F)(F)F)c2)c1 | 24.3 µM [falling, partial curve]
COc1ccccc1C(=O)N1CC(Oc2ccc(-c3nc(-c4ccccc4)no3)cc2)C1 | 24.3 µM [falling, partial curve]
O=C(Nc1nccs1)[C@@H]1C[C@@H](c2ccc(F)cc2)N(CCOc2ccccc2)C1 | 44.4 µM [falling, single point]
CN(C)c1cccc(C(=O)N2CCN(C(=O)c3nnn4c3COC(c3ccc(Cl)cc3)C4)CC2)c1 (stereo unspecified) | 21.7 µM [falling, partial curve]
O=C(c1ccc2[nH]ccc2c1)N1CCC2(CC1)N=C(c1ccc(Br)cc1)NO2 | 24.3 µM [falling, partial curve]
CN1C[C@@H](NC(=O)c2ccc3c(c2)OCO3)C[C@H]1c1nc(-c2ccc(Cl)cc2)no1 | 35.3 µM [falling, partial curve]
Cn1ccc(NC(=O)c2ccc3c(c2)NC(C)(CCCCc2ccccc2)CO3)n1 (stereo unspecified) | 31.4 µM [falling, partial curve]
CN(Cc1cccnc1)c1ccc2ncc(Nc3cccc(C(F)(F)F)c3)n2n1 | 25 µM [falling, partial curve]
COc1ccc(CN2C[C@@H]3C(=O)N(Cc4ccc5c(c4)OCO5)C(=O)[C@@H]3C2)cc1OC | 21.7 µM [falling, partial curve]
CCOc1ccc(C(=O)N2CCC3(CC2)N=C(c2ccc(Cl)cc2)NO3)cc1 | 19.3 µM [falling, partial curve]
COC(=O)c1ccc2nc(CO[C@H]3CN(Cc4ccc(Cl)cc4)C[C@H]3F)[nH]c2c1 | 35.3 µM [falling, partial curve]
Cc1cc(C(=O)N2CCC3(CC2)CC(N(Cc2ccc(F)cc2)C2CC2)CCO3)n(C)n1 (stereo unspecified) | 21.7 µM [falling, partial curve]

Compound | CC50
Cc1cnccc1CN(C)C(=O)c1cc(COc2ccc(-n3cncn3)cc2)on1 | 17.2 µM [falling, partial curve]
O=C(c1ccccc1)N1CCc2sc(C(=O)N3CCN(c4ccccc4)CC3)cc2C1 | 24.3 µM [falling, partial curve]
Cc1ncnc(N2CCC3(CC2)CC(=O)N(CCCc2ccccc2)C3)c1C | 6.11 µM [falling, full curve]
O=C(c1cccc2[nH]ccc12)N1CCCC(n2cc(-c3nc(C4CC4)no3)nn2)C1 (stereo unspecified) | 24.3 µM [falling, partial curve]
COc1ccc2nc3n(c2c1)[C@@H](CNCc1ccc2c(c1)OCO2)COC3 | 35.3 µM [falling, partial curve]
CC(C)Cc1cn(CC2CCCN(C(=O)c3n[nH]c4c3CCCC4)C2)nn1 (stereo unspecified) | 17.2 µM [falling, partial curve]
O=C(COc1ccc(F)cc1)N1CCC(Oc2ccc(-c3noc(C4CC4)n3)cc2)C1 (stereo unspecified) | 43.2 µM [falling, single point]
CCc1noc(CC2CCOC3(CCN(S(=O)(=O)c4ccc(F)c(F)c4)CC3)C2)n1 (stereo unspecified) | 27.3 µM [falling, single point]
CCn1cc(-c2ccc(C)cc2)cc1C(=O)N1CCN(c2ccccn2)CC1 | 24.3 µM [falling, partial curve]
COc1ccc(C2Cn3nnc(C(=O)N4CCN(C(=O)c5sccc5C)CC4)c3CO2)cc1 (stereo unspecified) | 21.7 µM [falling, partial curve]
Cc1cc(Cl)ccc1-c1ccc(CNC2CN(C(=O)OC(C)(C)C)C2)cc1 | 30.6 µM [falling, single point]
CC(C)c1noc(CC2CCN(C(=O)c3ccc(F)cc3)CC2)n1 | 43.2 µM [falling, single point]
O=C(CC1CCCCC1)N1CCC(Cc2nc(-c3ccccc3)no2)CC1 | 21.7 µM [falling, partial curve]
COc1ccc(CCNC(=O)CC(c2cccc(F)c2)c2cn(C)c3ccccc23)cc1OC (stereo unspecified) | 21.7 µM [falling, partial curve]
COc1ccc(-c2noc(CC3CCN(C(=O)c4ccc(OC)c(OC)c4)CC3)n2)cc1 | 7.69 µM [falling, partial curve]
Cc1noc(-c2ccc(OC3CN(C(=O)NCc4ccc(F)cc4)C3)cc2)n1 | 21.7 µM [falling, partial curve, poor fit]
O=C(c1cc(F)ccc1F)N1CCC(Cc2nc(-c3ccccc3)no2)CC1 | 12.2 µM [falling, partial curve]
CCOc1ccccc1C(=O)N1CCc2[nH]nc(C(=O)NCCCc3ccccc3)c2C1 | 30.6 µM [falling, single point]
OCC1(CCOc2ccccc2)CCCN(c2ncnc3sccc23)C1 (stereo unspecified) | 5.44 µM [falling, full curve]
